In PubChem BioAssay AID624417 (National Center for Advancing Translational Sciences (NCATS), 2012):
About 6,400 (1.6%) of roughly 410,000 compounds were called active. Inconclusive results, whose numbers are uncertain, are shown with a selection of clear calls. Calls come from the whole dose curve; as a rule, active = well fitted inhibition curve with a large enough effect; inconclusive = small, poorly fitted or top-dose-only effect; inactive = no such curve, though single readings can be large or run the other way. No potency is given beside an inconclusive call; the fits are too rough.

target: Glucagon-like peptide 1 receptor (Homo sapiens) (UniProt P43220); assay: qHTS of GLP-1 Receptor Inverse Agonists (Inhibition Mode); details: HEK293 GLP-1R CRE-luciferase, luminescence, 24 h, GLP-1R form is constitutively active; activity change, negative = inhibition: at 38.3 µM (top of the series) unless noted; note: nearly all actives have a fitted effect of over 55% in size
Chain of UniProt P43220 (P43220 whole entry, looked up): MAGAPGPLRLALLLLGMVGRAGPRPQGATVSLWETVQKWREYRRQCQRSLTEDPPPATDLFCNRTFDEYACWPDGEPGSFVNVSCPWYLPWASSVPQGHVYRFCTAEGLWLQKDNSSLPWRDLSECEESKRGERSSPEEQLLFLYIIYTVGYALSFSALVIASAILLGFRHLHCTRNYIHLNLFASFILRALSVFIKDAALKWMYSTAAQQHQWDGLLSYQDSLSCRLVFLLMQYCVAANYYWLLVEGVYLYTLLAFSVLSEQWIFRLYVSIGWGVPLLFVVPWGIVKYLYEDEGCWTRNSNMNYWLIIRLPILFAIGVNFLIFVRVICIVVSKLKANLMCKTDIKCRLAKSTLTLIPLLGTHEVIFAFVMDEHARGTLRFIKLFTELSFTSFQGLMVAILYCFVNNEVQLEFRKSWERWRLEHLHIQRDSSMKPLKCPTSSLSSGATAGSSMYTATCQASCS
Method in brief: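 Luminescence readout: a drop in cAMP-driven luciferase signal flags inverse agonism at a constitutively active GLP-1R stably expressed in HEK293. Compound exposure lasted 24 hr at 37 deg C, 5% CO2.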
% is set by controls: 0 for no effect and ±100 for the full control effect; potency is the fitted concentration of half-maximal effect; tags give direction and shape of the fitted curve.

Compound | Potency | activity change, negative = inhibition
O=C(Nc1nnc(SCc2ccc(F)cc2)s1)C1CC(=O)N(c2ccc3c(c2)OCCO3)C1 (stereo not given) | inconclusive [inhibitor, single point] | –
CC/C(=N\NC(=S)NC(C)C)c1ccc(OC(F)F)cc1 | inconclusive [inhibitor, partial curve, poor fit] | –
Cc1ccccc1CCNC(=O)c1ccc(NC(=O)N2CC(C)Sc3ccccc32)cc1 (stereo not given) | inconclusive [inhibitor, partial curve, poor fit] | –
COc1ccccc1[C@@H]1C(c2ccccc2)=NN(c2ccc(Br)cc2)[C@H]1C(=O)N1CCOC1=O | inconclusive [inhibitor, partial curve, poor fit] | –
CCCCc1cc(=O)oc2cc(OCC(=O)N(CC)CC)c(Cl)cc12 | inconclusive [inhibitor, full curve] | –
Cc1ccn2c(Nc3ccccc3C)c(-c3ccc(N4CCOCC4)cc3)nc2c1 | active: 12.6 µM | –
Cc1cc(C)cc(NC(=S)NCc2ccc(F)cc2)c1 | inconclusive [inhibitor, single point] | –
Cc1cccc(NC(=S)/N=C(\N)Nc2nc(C)c3ccc(C)cc3n2)c1 | inconclusive [inhibitor, partial curve] | –
COc1ccc(/C=C2\SC(=S)N(CCC(=O)Nc3cccc(O)c3)C2=O)cc1 | – | inactive: 6.11%
COc1ccc(C(=O)NNC(=S)NC(=O)c2ccc(Cl)cc2)cc1 | inconclusive [inhibitor, single point] | –
CCOC(=O)/C(=N\Nc1ccc(Br)cc1)N1CCN(c2ccccc2OC)CC1 | active: 2.24 µM | –
O=C(CN1CCN(Cc2ccccc2)CC1)N/N=C/c1ccc(Br)s1 | inconclusive [inhibitor, single point] | –
CCCCCCCN1C(Nc2ccccc2)=NC[C@@H]1CC(C)C | inconclusive [inhibitor, partial curve, poor fit] | –
COc1cccc(CN2CCN(CC(=O)NCCc3ccccc3)CC2)c1 | inconclusive [inhibitor, single point] | –
N#CC1=C(N)Oc2cc(N)ccc2C1c1cccc(F)c1 (stereo not given) | inconclusive [inhibitor, full curve] | –
O=C(O)c1sccc1Oc1ccc(NS(=O)(=O)c2ccccc2)cc1 | – | inactive: 9.3%
Cc1onc(-c2ccccc2Cl)c1C(=O)NCCCc1ccccc1 | inconclusive [inhibitor, single point] | –
Cc1ccc(C2=CC(c3ccccc3C)n3c(nc4ccccc43)N2)cc1 (stereo not given) | inconclusive [inhibitor, single point] | –
CCOc1ccc(NC(=O)CSc2oc(-c3cccs3)nc2S(=O)(=O)c2ccc(C)cc2)cc1 | – | inactive: 25.7%
Cc1cc(C)cc(NC(=O)N2CCCCCCC2)c1 | inconclusive [inhibitor, single point] | –
CC(=O)c1cccc(CN2CCC(C(=O)Nc3cccc(-c4ccn[nH]4)c3)CC2)c1 | inconclusive [inhibitor, single point] | –
Cc1cc(C)c(S(=O)(=O)NCCSCc2ccco2)c(C)c1 | inconclusive [inhibitor, single point] | –

Compound | Potency | activity change, negative = inhibition
Cc1cc(S(=O)(=O)N2CCCC2)c(C)s1 | – | inactive: 0.304%
Cc1[nH][nH]c(=O)c1C(c1c(C)[nH][nH]c1=O)c1cn(Cc2ccc(Cl)c(Cl)c2)c2ccccc12 | inconclusive [inhibitor, single point] | –
Cc1ccc(C)c(Nc2nnc(-c3ccc(C)c(S(=O)(=O)N4CCN(C)CC4)c3)c3ccccc23)c1 | – | inactive: -1.87%
Cn1c(-c2ccco2)nc2cc3ccccc3cc21 | inconclusive [inhibitor, partial curve] | –
CCN(CC)S(=O)(=O)c1cccc(NC(=O)COC(=O)/C=C/c2cccs2)c1 | inconclusive [inhibitor, single point] | –
CSc1nnc(NC(=O)c2ccc3c(c2)OCO3)s1 | inconclusive [inhibitor, partial curve, poor fit] | –
Cc1ccc(C(=O)CCNc2ccc(Br)cc2)o1 | – | inactive: -15.6%
CCCn1c(COc2cccc(C)c2)nc2ccccc21 | inconclusive [inhibitor, partial curve, poor fit] | –
COc1ccc(-c2nc(CSCC(=O)NCCC3=CCCCC3)c(C)o2)cc1OC | inconclusive [inhibitor, single point] | –
O=C(O)c1ccccc1C(=O)NNc1ccc(Cl)cc1 | inconclusive [inhibitor, partial curve, poor fit] | –
CCOCC(=O)Nc1c(C(=O)Nc2ccc3c(c2)OCCO3)oc2ccccc12 | inconclusive [inhibitor, single point] | –
Cc1cc(S(=O)(=O)N2CCN=C2c2ccccc2)ccc1F | inconclusive [inhibitor, full curve, poor fit] | –
COc1ccc(-n2c(SCC(=O)C(C)(C)C)nc3c(sc(=S)n3-c3ccccc3)c2=O)c(OC)c1 | – | inconclusive: -34.4% [inhibitor]
C[C@H](CO)N1C[C@H](C)[C@H](CN(C)C(=O)Nc2ccc(F)cc2)Oc2c(NC(=O)c3ccc(-c4nccs4)cc3)cccc2C1=O | – | inactive: -4.95%
CCCCc1c(-c2ccccc2OC)ncn1CCc1ccc(Cl)cc1 | inconclusive [inhibitor, single point] | –
OC(c1cccc(Cl)c1)c1nccc2ccccc12 (stereo not given) | inconclusive [inhibitor, single point] | –
COc1ccc(C2NC(=O)NC3=C2CCc2ccccc23)cc1 (stereo not given) | inconclusive [inhibitor, partial curve, poor fit] | –
CCc1ccc(C(=O)CCC2CCCCC2=O)cc1 (stereo not given) | inconclusive [inhibitor, single point] | –
COC(=O)c1sccc1NC(=O)CCC1CCCCC1 | inconclusive [inhibitor, single point] | –
Cc1cc(C)nc(Nc2nc(C(N)Cc3ccc(F)cc3)cs2)n1 (stereo not given) | inconclusive [inhibitor, partial curve] | –
CCOC(=O)c1c(-c2ccccc2)csc1NC(=O)C1CCCO1 (stereo not given) | inconclusive [inhibitor, single point] | –
COc1ccc(NC(=O)CN2C(=O)C(C)(C)c3cc(S(=O)(=O)N4CCCCC4)ccc32)cc1Cl | inconclusive [inhibitor, single point] | –

Compound | Potency | activity change, negative = inhibition
CCOC(=O)c1c(NC(=O)CCl)sc(CN(C)C)c1-c1ccccc1 | inconclusive [inhibitor, partial curve] | –
CCc1sc(Nc2cccc(Cl)c2)nc1-c1cc2cccc(OC)c2oc1=O | inconclusive [inhibitor, single point] | –
CC(C)Oc1cccc(C(=O)C2CCCN(S(C)(=O)=O)C2)c1 (stereo not given) | – | inactive: 12.1%
Cc1cc2occ(CC(=O)NCc3cccs3)c2cc1C(C)C | inconclusive [inhibitor, partial curve, poor fit] | –
CN(CC1CCCCO1)C(=O)c1cc(COc2ccc(F)cc2Cl)on1 (stereo not given) | inconclusive [inhibitor, single point] | –
COc1ccccc1NC(=O)c1nnn(Cc2ccccc2)c1NC(C)=O | – | inactive: -3.51%
CC(O)c1nc2ccccc2n1CCOc1ccccc1 (stereo not given) | inconclusive [inhibitor, partial curve, poor fit] | –
CN(CC(=O)Nc1ccccc1Cl)C(=O)c1ccc(Cl)c(S(=O)(=O)N2CCCCCC2)c1 | inconclusive [inhibitor, single point] | –
O=C(CSc1nnc(-c2ccncc2)o1)Nc1cc(Cl)ccc1C(=O)O | – | inactive: -8.84%
CC(C)CCNC(=O)COc1ccc2c(c1)C(=O)CC(C)(C)O2 | – | inactive: -0.395%
COc1ccccc1/C=N/NC(=O)NC12CC3CC(CC(C3)C1)C2 | inconclusive [inhibitor, full curve] | –
CC(C)(C)OC(=O)N1CCCN(C(=O)Nc2ccc(C(F)(F)F)cc2)CC1 | inconclusive [inhibitor, partial curve, poor fit] | –
CCCCOc1c(Br)cc(CNCCCN2CCOCC2)cc1OC | inconclusive [inhibitor, single point] | –
Cc1ccc(S(=O)(=O)Nc2cc3c(C(=O)OCc4ccccc4)c(C)oc3c3ccccc23)c(C)c1 | inconclusive [inhibitor, single point] | –
Cc1cccc(OCC(=O)Nc2cccc(C(=O)OCc3cc(=O)n4nc(C(C)C)sc4n3)c2)c1 | – | inactive: 8.34%
CCOc1ccc(NC(=O)C2CCCN(S(=O)(=O)c3cnc[nH]3)C2)cc1 (stereo not given) | inconclusive [inhibitor, partial curve, poor fit] | –
CCc1ccc(NS(=O)(=O)c2ccc3[nH]cc(C(=O)N4CCc5ccccc54)c(=O)c3c2)cc1 | inconclusive [inhibitor, partial curve, poor fit] | –
CC1CC(C)(C)NC(=S)N1CCC(=O)N1c2ccccc2CC1C (stereo not given) | inconclusive [inhibitor, single point] | –
O=C(Nc1ccccc1)N1CCCN(c2c(Cl)cncc2Cl)CC1 | inconclusive [inhibitor, full curve, poor fit] | –
COc1ccc(S(=O)(=O)N2CCC(C)CC2)cc1Br | inconclusive [inhibitor, single point] | –
O=C(OCc1nnc(-c2ccccc2)o1)c1cn(-c2ccccc2)nc1-c1ccccc1 | active: 12.6 µM | –
